# Over roughly 33,000 sequences, “E-score (-0.5 to 0.5)” has its median near -0.035; the highest 2% begin near 0.35. The list shows a part of the results.
# Molecular target: T1, Pdr3 (UniProt P33200)
# T1 sequence: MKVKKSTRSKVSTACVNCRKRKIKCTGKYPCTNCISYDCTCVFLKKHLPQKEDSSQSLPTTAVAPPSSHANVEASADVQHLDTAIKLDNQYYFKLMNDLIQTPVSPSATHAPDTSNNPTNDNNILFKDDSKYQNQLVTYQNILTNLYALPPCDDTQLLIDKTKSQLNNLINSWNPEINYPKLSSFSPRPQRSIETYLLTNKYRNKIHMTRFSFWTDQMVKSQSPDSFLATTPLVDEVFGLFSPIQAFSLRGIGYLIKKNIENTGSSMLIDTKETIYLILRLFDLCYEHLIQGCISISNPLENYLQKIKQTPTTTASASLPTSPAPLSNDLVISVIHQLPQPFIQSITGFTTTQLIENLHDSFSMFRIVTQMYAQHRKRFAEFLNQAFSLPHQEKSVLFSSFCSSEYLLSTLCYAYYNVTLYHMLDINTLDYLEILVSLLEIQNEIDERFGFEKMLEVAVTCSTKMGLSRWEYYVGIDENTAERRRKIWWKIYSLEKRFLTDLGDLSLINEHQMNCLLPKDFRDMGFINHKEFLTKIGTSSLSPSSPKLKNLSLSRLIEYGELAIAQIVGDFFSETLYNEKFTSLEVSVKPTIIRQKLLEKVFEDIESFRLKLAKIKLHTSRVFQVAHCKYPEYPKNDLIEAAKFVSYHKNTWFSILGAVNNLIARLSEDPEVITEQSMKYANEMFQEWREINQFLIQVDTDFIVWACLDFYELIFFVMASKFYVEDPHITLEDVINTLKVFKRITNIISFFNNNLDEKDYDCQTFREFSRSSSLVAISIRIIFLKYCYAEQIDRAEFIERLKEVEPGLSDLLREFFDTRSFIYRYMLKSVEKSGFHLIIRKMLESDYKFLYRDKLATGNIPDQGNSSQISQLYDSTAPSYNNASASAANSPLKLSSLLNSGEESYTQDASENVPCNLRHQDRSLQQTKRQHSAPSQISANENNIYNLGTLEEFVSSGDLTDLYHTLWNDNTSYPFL
# Test: PBM E-score (8-mer binding enrichment) (E-score (-0.5 to 0.5)); higher = stronger / more preferred TF binding; most listed sequences are background and not binding sites
# Conditions: protein concentration: 200 nM; construct: GST-full length
# Experimental: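 Universal 'all 10-mer' protein binding microarrays (Agilent AMADID 015681) probed with GST-tagged S. cerevisiae TFs (full-length or DBD) made by in vitro transcription/translation (PURExpress), about 100-200 nM. Bound TF was detected with fluorescent anti-GST. Each ungapped 8-mer (which stands for itself and its reverse complement) is scored by the PBM enrichment score (E-score), a modified Wilcoxon-Mann-Whitney statistic from -0.5 to +0.5, computed with the Universal PBM Analysis Suite. Scale: above 0.35 generally sequence-specific binding.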
row,Sequence,PBM E-score
1,CCGCTTAA,0.0956
2,ACCTGGGG,-0.281
3,CGACGCCC,0.173
4,CATCAGCC,-0.0388
5,GATCAAGA,0.123
6,AACGCGGG,0.332
7,AATGAAAC,0.059
8,CACCGAGG,0.167
9,AAACTCGG,0.218
10,ACCTCCTG,-0.304
11,ACCCTGGG,0.00742
12,TGTCGACA,-0.217
13,AGGTGAAG,-0.118
14,GTACATAA,-0.0417
15,GCCGCCCC,0.14
16,ACTGCAGC,-0.0257
17,ATCGGCAA,0.0933
18,ACCGCCAC,-0.0374
19,AAGGAATT,0.0441
20,AAAGAGTC,-0.0912
21,AAGTGTCT,-0.0964
22,ATTTACAG,-0.112
23,ACAGATTC,0.0872
24,GCACCGCA,-0.0228
25,CACGCAGA,-0.0681

row,Sequence,PBM E-score
1,TATGGGAA,0.0296
2,AAAAACGA,-0.0303
3,ACTACAAC,-0.0248
4,TCTCCGCA,0.168
5,AGCATCCC,0.12
6,CACATGGG,-0.0679
7,AGACCGAT,0.0137
8,GTTGGGGA,-0.0633
9,AGTGGGTA,0.0928
10,CAGGTACC,-0.0708
11,AGTCTGCG,-0.259
12,GAAGCGTC,-0.17
13,GAACGGGC,-0.103
14,CCTCCTCG,-0.207
15,GCGAGACC,-0.0938
16,ACTTGTTC,0.0404
17,GCTGACCA,0.0667
18,GAAGAACC,0.143
19,AATGAATT,0.0733
20,AGCACGAG,0.0609
21,GGTATCAA,-0.0451
22,CGAGAACG,0.2
23,AGGGATCC,0.196
24,ATGTCGCG,0.18
25,CCTCCCGC,0.177

row,Sequence,PBM E-score
1,ACAGGACC,-0.0605
2,CATCCTGC,-0.207
3,GCGATTAC,-0.0135
4,GACCGCGA,0.131
5,CCACTCAC,0.0418
6,CCTTAATA,-0.0631
7,GATGCATA,-0.00963
8,ACTGGTGA,-0.31
9,CCCCCCCA,-0.265
10,CACTCTCC,0.101
11,CAAGATAG,-0.059
12,GGTACAGA,-0.0537
13,CGGAAAAG,0.415
14,AACCAGCA,-0.109
15,CTAGAGCC,-0.261
16,CCACAACC,0.0861
17,AAGAGAGT,-0.226
18,GCGTGAGA,0.00659
19,ATTTTTGC,0.0217
20,AACCTTTC,-0.0762
21,ATTGTCGG,0.193
22,ATACTGCG,0.0344
23,AGTCACAA,-0.132
24,CATGGTCC,0.0411
25,CCCGACAC,0.0405

row,Sequence,PBM E-score
1,CAAGTTGG,-0.0191
2,ATCCCATA,0.0193
3,AAGCGCGG,0.17
4,ATGAGGAA,-0.0143
5,CCAAGCGA,-0.126
6,CATGCGGC,0.0139
7,ATAGCAAA,-0.274
8,GTATGAGA,0.089
9,GCAAGCCC,-0.0061
10,ACGTTGTA,-0.0949
11,GGGACACC,0.0616
12,CAAGTGCC,-0.0721
13,CTCGGGAC,0.293
14,ACTGGGCG,-0.018
15,ACGGTGCA,-0.172
16,TACTGTGA,-0.0404
17,GCTTGAAC,0.16
18,CATCAGAG,-0.0589
19,CCGGCGGA,0.449
20,ACCGATAG,0.0273
21,CCGGACCG,0.378
22,TACAAAGA,-0.0536
23,AGCAATCC,0.0514
24,AGGTCCAA,-0.294
25,CAGGATAA,-0.02

row,Sequence,PBM E-score
1,AACGGATT,0.334
2,CAATATTC,0.0802
3,CCAGGAAC,-0.0712
4,ATGCGGGG,0.0406
5,CTCATTTA,0.047
6,AGACAGTC,-0.0923
7,AACTGAAG,-0.148
8,TCAAGGCA,-0.319
9,GCAATGGC,0.0501
10,CCTCGGAG,0.283
11,AGCCAGAA,-0.174
12,CGAATGCG,0.23
13,ACTGTCCC,0.00248
14,AAGAGGGC,-0.124
15,TAGTCGCA,0.0265
16,CTGATTTC,-0.0616
17,CAGGGCCA,-0.111
18,AACGCTAT,-0.102
19,ACGATCCT,-0.137
20,CTCAGCCA,-0.0645
21,TAATAAAA,-0.0293
22,GCCAAAAC,-0.19
23,CACACCCG,0.208
24,AGGTCAAC,-0.141
25,CCTGGCCA,-0.107

row,Sequence,PBM E-score
1,ATCGTCGA,-0.106
2,GCTAGAAC,-0.192
3,CGTCCGCC,0.218
4,GATGCGGA,0.28
5,CCTGGAAC,-0.0704
6,GGGTGCAC,-0.0725
7,CCAGATCA,0.112
8,GTCTCTCA,-0.132
9,ATAATACC,0.136
10,CAAATTAG,-0.121
11,AAATGTTA,-0.0514
12,GGGCTGCA,0.0408
13,GGCTGTAC,-0.0522
14,ATCGACCC,0.0438
15,AAGGATGG,-0.108
16,GGTAATGA,0.0594
17,AGCCCGAA,0.101
18,CAAGTCGA,-0.23
19,CGCACGAA,0.0474
20,GACTTCAA,-0.172
21,CCGGTGTC,0.202
22,ACTTGGTG,-0.141
23,ACAGCGTG,-0.0566
24,AGAGAACT,-0.0529
25,AAGCTATG,-0.149

row,Sequence,PBM E-score
1,TCGCTCCA,-0.193
2,GCACAACA,-0.104
3,ACCACTGC,-0.14
4,AGGACGCA,0.0598
5,GGTCGCTA,0.0138
6,GGTTTATA,-0.0112
7,GATCGTCA,-0.0471
8,AAGAGCAG,-0.0681
9,ACTCGGAT,0.256
10,AGAGCACA,0.0122
11,TACGACCA,-0.175
12,ACCTATAT,0.123
13,AATCGCTC,-0.132
14,CCGGTAGA,0.166
15,AAGTTATG,0.0432
16,ATCTACGA,-0.208
17,GAAGTATC,-0.00803
18,ACTGGGAA,0.102
19,ACGTGAGT,-0.0439
20,CAACCAGG,-0.201
21,CAATTAGA,-0.161
22,CACGTGAC,-0.134
23,CCATCGGC,0.124
24,CTCTTCAC,-0.207
25,AATAATCA,0.0372

row,Sequence,PBM E-score
1,GCTTTTGA,-0.112
2,CATCATGG,0.00142
3,AGCTCCAG,-0.186
4,CCGCGATA,0.216
5,CATTTTAA,-0.0299
6,GCACGAGA,-0.00462
7,GCCGGTTA,0.0864
8,AGCGATCC,0.117
9,AGCTCCCT,-0.178
10,GCTCTGGA,0.114
11,CAGGCATG,-0.0575
12,AACGATGT,-0.0606
13,CAGCGACG,-0.0814
14,GCTAGACC,-0.188
15,CATAGAAA,0.0933
16,GTTACGTA,-0.385
17,ATGCAGGA,-0.19
18,CTTAAGTA,-0.138
19,CCAATTCA,-0.0433
20,GGTAAATA,-0.0254
21,ACGGAGGG,0.2
22,CCTGTACA,-0.0365
23,AGTTACCA,0.0405
24,AGCATGGC,0.0141
25,CATGTGCA,-0.147

row,Sequence,PBM E-score
1,CGCAAGAC,-0.189
2,GCGGGATA,0.322
3,AGGAGACG,-0.262
4,CCACACAG,0.0645
5,ATACATAA,-0.0555
6,GCCATATA,-0.0189
7,ACACAAGT,-0.118
8,TAAGTCCA,-0.0649
9,ATTCTCTA,-0.127
10,CCAGATGC,-0.19
11,GACGCCCC,0.0316
12,ATATCAGA,0.00537
13,TCCTCCGA,0.151
14,GTAGATAA,0.0873
15,CGTGTTTC,-0.00811
16,TCGCCGAA,0.0457
17,ATAACCAG,-0.0465
18,ATCGCCAG,-0.0615
19,AAGCGTAG,-0.148
